The data set has as its system ATP. As to the kind of experiment: switch fluorescence ratio, 500 uM ATP over buffer (Cy3 cluster intensity, sum of 5 cycles each) (fold (ratio)); higher = stronger signal-on switching upon ATP binding; sequences stand for … in TCGTCGGCAGCGTCAGATGTGTATAAGAGACAGTTTTTTTTTTTTTTTTTTTTTTTTT…TC. The conditions noted are these: aptamer strand: ATP DNA aptamer (quencher-CACCTGGGGGAGTATTGCGGAGGAAGG + anchor), 100 nM annealed; ATP concentration: 500 uM; one replicate. An outline of the steps: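 Between each of five buffer/ATP cycles, the flow-cell was stripped with NaOH and re-annealed. Each cycle imaged Cy3-labelled switching-strand clusters, annealed to 100 nM quencher-labelled ATP aptamer on a modified Illumina MiSeq flow-cell, first in selection buffer and then after 15 min with 500 uM ATP at 22 °C. The fluorescence ratio is summed target-cycle over summed buffer-cycle Cy3 intensity per cluster, averaged per switch-domain sequence, with clusters outside 100-1000 RFU excluded.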

Values marked as one replicate rest on one cluster of the flow cell; about a third of the high ones do not repeat.
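Also: ATP exposure 15 min at 22 °C before imaging.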

As for TAATCAGAAC, the switch fluorescence ratio was 0.93.
On to AGGATTAG, for which the switch fluorescence ratio amounted to 1.03.
Turning to GGTTGCGGAG, the switch fluorescence ratio was 0.947.
Next, TATACTTCGA: 0.961.
On to TTGTTATCGC, for which the switch fluorescence ratio came out at 1.05.
Take TACAAGATAT: the switch fluorescence ratio was found to be 1.03.
Then TTGGACAACT, with 1.14.
Take AGTTCCAGTC: the switch fluorescence ratio came to 1.04.
With CAAAAAACTT, the switch fluorescence ratio was 1.06.
For CGATTCTGTC, the switch fluorescence ratio is 1.11.
As to AGAACCTACA, the switch fluorescence ratio came to 1.25.
For GACCACGCCT, the switch fluorescence ratio was determined as 1.18.
On to GAAGAGGCGC, for which the switch fluorescence ratio amounted to 1.01.
As to TCATGAATGT, the switch fluorescence ratio was 1.02.
Take ATAACGCTGT: the switch fluorescence ratio is 1.
TTCAATTCCT: the switch fluorescence ratio was determined as 1.04.
Then GGACACCGAG, with 1.06; and TTTTCACTAA, with 1.01.
With AGGTTACCAC, the switch fluorescence ratio came to 1.02.
Regarding ACGGAAAGAC, the switch fluorescence ratio is 1.27.
Consider CCCCGTGTGG, for which the switch fluorescence ratio turned out to be 1.13.
Then CGGTTTGACG, with 1.01.
Then TTTTTCTGCC, with 0.97; and CCTAATCTC, with 0.982.
On to ATTGTTTCGT, for which the switch fluorescence ratio came out at 0.988.
On to TAACTGAGAT, for which the switch fluorescence ratio was determined as 0.987.
Next, AAATCATTCA: 1.02; ACTCTGTGTT: 0.993; CGAAGGTTAT: 1.02.
With AAAGGTATCC, the switch fluorescence ratio is 0.973.
Next, TGACCTCACG: 1.2; GTGTCGCGAT: 0.966; CAATGTAGTT: 0.972.
With TCATATTCAA, the switch fluorescence ratio is 1.01.
As for TCATCTCCCA, the switch fluorescence ratio came out at 1.23.
As to CTTTGTGACA, the switch fluorescence ratio amounted to 0.959.
For AAGCCACGAC, the switch fluorescence ratio was found to be 1.19.
As to ATCAGACTTT, the switch fluorescence ratio was 0.953.
For the sequence TTTACGTACA, the switch fluorescence ratio stood at 1.67.
Consider AGCCGAGGTC, for which the switch fluorescence ratio worked out at 1.06.
Take ATGCACTGCG: the switch fluorescence ratio is 0.987.
Next, ACCGACAATT: 1.3.
Then GTCTAACGCT, with 0.978; and TGGGAATAAG, with 0.962.
AACGGGGCTA: the switch fluorescence ratio is 1.02.
With ATGCTGTTGA, the switch fluorescence ratio is 1.01.
On to TATATGTCAT, for which the switch fluorescence ratio was 0.983.
For the sequence GTATCTACCT, the switch fluorescence ratio stood at 1.14.
In the case of AGTAGGGATA, the switch fluorescence ratio worked out at 1.01.
Consider CGAGTCAAAT, for which the switch fluorescence ratio was determined as 1.09.
In the case of GTCACTCTG, the switch fluorescence ratio is 1.
As for TAATGACTTA, the switch fluorescence ratio is 0.991.
With GACTACCTAA, the switch fluorescence ratio came out at 1.1.
For ACGACTCCAA, the switch fluorescence ratio is 1.4.
With GCTATATAT, the switch fluorescence ratio stood at 0.996.
Turning to ACCAGGGAAT, the switch fluorescence ratio is 1.03.
For the sequence ATTTTAGGAA, the switch fluorescence ratio came to 0.982.
On to CGGATTGTT, for which the switch fluorescence ratio came to 1.04.
In the case of CGAATGACAA, the switch fluorescence ratio was found to be 1.04.
Next, GGTGTCGACG: 1.03; TTTTTTCCTA: 1.06; CTGTTATGGC: 1.14.
Consider CCTTTGGGAC, for which the switch fluorescence ratio was 1.06.
Turning to TGGATCGCAT, the switch fluorescence ratio was 1.09.
Consider ATAGTAGTT, for which the switch fluorescence ratio stood at 0.965.
For TTGGGAGCTA, the switch fluorescence ratio stood at 1.01.
Then AGATACGTAG, with 1.04; and ATTAGTCACC, with 1; and GCACTCGCCT, with 0.988.
Next, AGACATTTTT: 1; GGATGCGCTG: 0.967.
Regarding TTTGTAATGC, the switch fluorescence ratio worked out at 1.45.
Turning to AGTTGGACCA, the switch fluorescence ratio came out at 0.958.
For the sequence GGAAGTGCAA, the switch fluorescence ratio was 1.03.
As to GAGCTAATAA, the switch fluorescence ratio came out at 1.69.
Then GGGCTTTAGG, with 1.07.
With GAAAAGTATA, the switch fluorescence ratio stood at 1.
Consider AATCGTCATA, for which the switch fluorescence ratio was found to be 1.
